We go through 56 variants from the RNAGym collection of RNA variant scans (doi:10.7554/elife.90254).

The source gives no read counts; variants with many changes may rest on few reads.

B1: LINE1-mini (parent)
chain: GGCAGAGCUCAACACAGCGUGGCAAAGUGGCUGUGGCUAGACUGCC

The variants in the data set derive from B1. Briefly: self-cleavage, relative activity (ratio to wild type); higher = more cleavage; in vitro, sequencing; the parent is a self-cleaving ribozyme.
GACAGAGCUCAACACAGCGUGGCAAAGUGUCUGUAGCUAGACUGCA [G2A G30U G35A C46A]: the self-cleavage was found to be 0.16.

In the case of GACAGAGCACAACACACCGUGGGAAAGUGGCUUUGGCUAGACUGCC [G2A U9A G17C C23G G33U], the self-cleavage stood at 0.06.

Take GACAGAGCCCAACACAGCGUGGCAAUGUGGCUGUGGCUAGACCGCC [G2A U9C A26U U43C]: the self-cleavage was determined as 0.02.

As for GACAGAGCUCAACACAGCGGGGCAAAGUGGCUGUGGCUAGACUGCA [G2A U20G C46A], the self-cleavage was determined as 0.27.

Regarding GACAGAGCUCAACACAGCGUGGCAAAGAGGCUGUGGCUUGACUGCC [G2A U28A A39U], the self-cleavage is 0.19.

Consider GACAGAGCCCAACACCGCUUGGCAAAGUGGCUCUGGCUAGACUGCC [G2A U9C A16C G19U G33C], for which the self-cleavage worked out at 0.02.

Take GACAGAGCGCUACCAAGCGUGGCAAAGUGGCUGUGGCUAGACUGCC [G2A U9G A11U A14C C15A]: the self-cleavage was found to be 0.01.

Take GACAGAGCUCAACACAGCGUGGCAAAGUGUCUGUUGCUAGACUGCC [G2A G30U G35U]: the self-cleavage was determined as 0.1.

For the variant GACAGAGCUCAACACAGCGUGGCAAAGUGGCUGUGGCUAUACUGUC [G2A G40U C45U], the self-cleavage came to 0.13.

Regarding GACAGAGCUCAACACAGCGUGGCAAAGUGGCUCUUCCUAUACUGCC [G2A G33C G35U G36C G40U], the self-cleavage came to 0.04.

As to GACAGAGCACAACACAGCGUGGCAAUGUGGCUGUGGCUAGACUGGC [G2A U9A A26U C45G], the self-cleavage came to 0.39.

Regarding GACAGAGCGCAACACAGUGUUGCCAAGUGGCUGUGGUGAGACUGCC [G2A U9G C18U G21U A24C C37U U38G], the self-cleavage worked out at 0.05.

Turning to GACAGAGCGCAACACAGCGCGGCAAAGUGGCUGUGGCUAGACUGCC [G2A U9G U20C], the self-cleavage was 0.18.

As to GACAGAGCUCAACACAGCGACGCAAAUUGGCUGUGGCUAGACUUCC [G2A U20A G21C G27U G44U], the self-cleavage was found to be 0.07.

Regarding GACAGAGCACAACACCGCGUCGCAAAGUGGCUGUGGCUAGGCUGCC [G2A U9A A16C G21C A41G], the self-cleavage came out at 0.76.

As to GACAGAGCUCAACACAGCGCGGCAAAGUGGCUGUGGCGAGACUGCC [G2A U20C U38G], the self-cleavage is 0.02.

Regarding GACAGAGCCCAACACAGCGUGGCAAAGUGGCUGUGGUUAGACUGCC [G2A U9C C37U], the self-cleavage stood at 0.04.

Consider GACAGAGCUCAACACAGCGAGGGAAAGUGGCUGUGGCUACAGUGCC [G2A U20A C23G G40C C42G], for which the self-cleavage was 0.03.

For the variant GACAGAGCGCAACACAGCGUGACAGAGUGGCUGUGGCUAGACUGCA [G2A U9G G22A A25G C46A], the self-cleavage stood at 0.32.

Turning to GACAGAGCCCAACACGGCGUAGCAAAGUGACUGUGGCUAGACUGCC [G2A U9C A16G G21A G30A], the self-cleavage is 0.03.

In the case of GACAGAGCGCAACAGAGCGUGGCGAAGUGGCUGUGGCUAGACUGCC [G2A U9G C15G A24G], the self-cleavage was determined as 0.15.

On to GACAGAGCACAACACAGCGUGGCAAAGUGGCUGGGGCUAGACUGCC [G2A U9A U34G], for which the self-cleavage came to 0.18.

For GACAGAGCUCAACACAGCGUGGCAAAGUGGCUUUGGCUAGACUCCC [G2A G33U G44C], the self-cleavage was 0.05.

In the case of GACAGAGCUCAACACAGCGGGGCAAAGUGGCUGUGGCUAGAUUGCC [G2A U20G C42U], the self-cleavage came out at 0.2.

For the variant GACAGAGCUCAACACAGCGUGGCAAAGCGGUUGUGACUAGACUGCC [G2A U28C C31U G36A], the self-cleavage was 0.36.

Turning to GACAGAGCGCAACACAGCGUGGCCAAGUGGCUGAGGCUAGAAUGCC [G2A U9G A24C U34A C42A], the self-cleavage was determined as 0.04.

As to GACAGAGCUCAACACAGCGUGGCAAAGUGGCUGUAGCUAGACUGCA [G2A G35A C46A], the self-cleavage amounted to 0.36.

Turning to GACAGAGCUCAACACAGCGUGGCAAAGUGGCUGUGACUAGAAUGCC [G2A G36A C42A], the self-cleavage amounted to 0.41.

On to GACAGAGCUCAACACAGCGCCGCAAAGUGGCUGUGGCUAGACUCCC [G2A U20C G21C G44C], for which the self-cleavage worked out at 0.14.

Regarding GACAGAGCCCAACGGAGCGUGGCAAAGUGGCUGUGGCUAGACUGCC [G2A U9C A14G C15G], the self-cleavage was found to be 0.08.

GACAGAGCUCAACACAGCGCGGCAAAGUGGCUGCGGCUAGAGUGCC [G2A U20C U34C C42G]: the self-cleavage amounted to 0.11.

For GACAGAGCUCAACACAGCGUGGCAAAGCGGCUGGGGCUAGACUGCG [G2A U28C U34G C46G], the self-cleavage turned out to be 0.15.

On to GACAGAGCACAACAAGGCGUGGAAAAGUGGCUGUGACUAGACUGCC [G2A U9A C15A A16G C23A G36A], for which the self-cleavage was 0.22.

As for GACAGAGCUCAACACAGCGUGGCAAAGUGGCCGUGGCUUCACUGCC [G2A U32C A39U G40C], the self-cleavage came to 0.09.

GACAGAGCCCAACGCAGCGUGGCAAAGUGGCUGUGGCUAGACUGCC [G2A U9C A14G]: the self-cleavage was determined as 0.04.

In the case of GACAGAGCUCAACACAGCGAGGCAAUGUGGCUGUGGCUAGACUGCC [G2A U20A A26U], the self-cleavage came out at 0.16.

As for GACAGAGCACAACACAGCGUGGCAAACUGGCUGUGGCUAAACUGCC [G2A U9A G27C G40A], the self-cleavage came to 0.12.

On to GACAGAGCACAACACAGCGUUGCAAAGUGGCUGUGGCUCGAUUGCC [G2A U9A G21U A39C C42U], for which the self-cleavage is 0.19.

With GACAGAGCUCAACACAGCGUGGCAAAGUGGCUGUUGUUAGGCUACC [G2A G35U C37U A41G G44A], the self-cleavage came to 0.06.

With GACAGAGCUCAACACAGCGUGGCAAAGUGGCUGGGGCUAGACUCCC [G2A U34G G44C], the self-cleavage is 0.04.

For the variant GACAGAGCUCAACACAGCGUGGCAAAGGGCCUGUGGCUAGACUGCC [G2A U28G G30C], the self-cleavage turned out to be 0.07.

For GACAGAGCUCAACACAGCGAGGCAAAUUGGCUGUGGCUAGACUGCC [G2A U20A G27U], the self-cleavage came out at 0.35.

Consider GACAGAGCUCAACACAGCGUGGCAAAGUGGCUGUGGCUAGACUAGC [G2A G44A C45G], for which the self-cleavage came to 0.6.

On to GACAGAGCGCAACACAGCGUGGAAAAUUGGCUGUGGCUAGACUGCC [G2A U9G C23A G27U], for which the self-cleavage came to 0.08.

For GACAGAGCUCAACACAGCGUGGCAAAGCGGCUGUGGCUAGACUUCC [G2A U28C G44U], the self-cleavage was determined as 2.31.

On to GACAGAGCCCAACACAGCGUGGCAAAGUGGAUGUGGCUAGACUGCC [G2A U9C C31A], for which the self-cleavage came to 0.02.

In the case of GACAGAGCUCAACACAGCGGGUCAACGUGGCUGUGGCUAGACUGCC [G2A U20G G22U A26C], the self-cleavage is 0.17.

As for GACAGAGCCCAACACAGCGUGGCAAAGUGGCUGAGGCUAGACUGCU [G2A U9C U34A C46U], the self-cleavage worked out at 0.03.

For the variant GACAGAGCACAACACAGCGUGUCAAAGUCGCUCUGGCUAGACUGCC [G2A U9A G22U G29C G33C], the self-cleavage was found to be 0.06.

Turning to GACAGAGCUCAACACAGCGUGGCAAAGUGGCUUUGGCUAAACUGCC [G2A G33U G40A], the self-cleavage stood at 0.06.

Consider GACAGAGCUCAACACAGCGGGGCAACGUGGCUGUGGCUAGACUGCG [G2A U20G A26C C46G], for which the self-cleavage was determined as 0.14.

As for GACAGAGCUCAACACAGCGAGGCAAAGUGGCUCGGGCUAGACUGCC [G2A U20A G33C U34G], the self-cleavage amounted to 0.06.

Regarding GACAGAGCUCAACACAGCGUGGCAAAGUGGCUGUUGCUGGACUGCC [G2A G35U A39G], the self-cleavage was 1.14.

As to GACAGAGCGCAACACAGCGUGGCAAAGUGGUUGUGGCUAGACGGUC [G2A U9G C31U U43G C45U], the self-cleavage turned out to be 0.02.

GACAGAGCCCAAGACAGAGUGGCAAAGUGGCUGUGGCUAGAAUGCC [G2A U9C C13G C18A C42A]: the self-cleavage was 0.02.

For GACAGAGCACAACAGAGCGUGGCAAAAUGGCUGUGGCUAGACUGCC [G2A U9A C15G G27A], the self-cleavage was 0.59.
